Key:
Recombinant human CTLA-4 = target: T1, Recombinant human CTLA-4 (human, UniProt P16410 37-162); assay: ELISA, plate coated with recombinant human CTLA-4, anti-human HRP detection
T1 construct: Bought protein; also called hCTLA-4
T1 sequence (looked up): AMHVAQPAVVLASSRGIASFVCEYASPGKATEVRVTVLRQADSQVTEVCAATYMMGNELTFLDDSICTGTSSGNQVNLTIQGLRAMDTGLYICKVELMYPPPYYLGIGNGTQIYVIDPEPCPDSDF

Recombinant human PD-L1 = target: T2, Recombinant human PD-L1 (human, UniProt Q9NZQ7 fragment); assay: ELISA, plate coated with recombinant human PD-L1, anti-human HRP detection
Sequence of Recombinant human PD-L1 (Q9NZQ7 19-238 limits assumed): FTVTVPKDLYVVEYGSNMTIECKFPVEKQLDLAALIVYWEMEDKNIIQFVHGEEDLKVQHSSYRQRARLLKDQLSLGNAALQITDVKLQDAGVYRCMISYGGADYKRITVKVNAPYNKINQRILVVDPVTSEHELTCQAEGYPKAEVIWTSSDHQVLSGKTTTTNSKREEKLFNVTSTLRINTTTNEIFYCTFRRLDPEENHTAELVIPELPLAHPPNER
T2 construct: Bought protein; also called hPD-L1

- EC50 (Recombinant human CTLA-4): 2.27 µg/mL
- EC50 (Recombinant human PD-L1): 6.35 µg/mL
B1: Fusion protein BY24.4 (other)
light: DIQMTQSPSSLSASVGDRVTITCSASQDISNYLNWYQQKPGKAPKVLIYFTSSLHSGVPSRFSGSGSGTDFTLTISSLQPEDFATYYCQQYSTVPWTFGQGTKVEIKRTVAAPSVFIFPPSDEQLKSGTASVVCLLNNFYPREAKVQWKVDNALQSGNSQESVTEQDSKDSTYSLSSTLTLSKADYEKHKVYACEVTHQGLSSPVTKSFNRGEC
heavy: EVQLVESGGGLVQPGGSLRLSCAASGYTFTNYGMNWVRQAPGKGLEWVGWINTYTGEPTYAADFKRRFTFSLDTSKSTAYLQMNSLRAEDTAVYYCAKYPHYYGSSHWYFDVWGQGTLVTVSSASTKGPSVFPLAPCSRSTSESTAALGCLVKDYFPEPVTVSWNSGALTSGVHTFPAVLQSSGLYSLSSVVTVPSSSLGTKTYTCNVDHKPSNTKVDKRV[human IgG4 Fc with S228P (EU numbers) left out here]GGGSGGGGSGGGGSVIHVTKEVKEVATLSCGHNVSVEELAQTRIYWQKEKKMVLTMMSGDMNIWPEYKNRTIFDITNNLSIVILALRPSDEGTYECVVLKYEKDAFKREHLAEVTLSVKADFPTPS
notes: Full-length anti-VEGF antibody (kappa, IgG4) with CD80 IgV fused through a (G4S)3 linker to the C-terminus of each heavy chain; also called anti-VEGF antibody-CD80 fusion protein; BY24.4 (κ, IgG4)
